# Reference: PMC12820563
# The other results are listed elsewhere or left out. The list includes weakly bound sequences.
# Target: T1, MBP-FoxP3dN (UniProt Q99JB6)
# T1 sequence: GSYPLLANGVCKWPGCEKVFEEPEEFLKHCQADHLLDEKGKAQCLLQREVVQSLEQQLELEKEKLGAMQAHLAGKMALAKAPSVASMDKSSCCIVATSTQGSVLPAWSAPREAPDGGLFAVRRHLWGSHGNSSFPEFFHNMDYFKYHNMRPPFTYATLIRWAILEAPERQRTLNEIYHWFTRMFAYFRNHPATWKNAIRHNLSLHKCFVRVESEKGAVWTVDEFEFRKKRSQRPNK
# Test: PD-seq (MBP pull-down with sequencing)
# Conditions: 20 mM Tris-HCl pH 7.5, 100 mM NaCl, 1.5 mM MgCl2, 0.4 uM protein, 0.1 uM dsDNA library, 30 min, room temperature, amylose pull-down; high values mean tight binding; double strand, one strand shown
row,Sequence,binding signal (RPM ratio (pull-down/input))
1,GATGATTGTTCTCCCAGCTGATGAATTGCTTAGCTCGAGTAAACAAATTTTCCTAATCTTTCTGTTCAAGCGCCATCTAC,0.719
2,GATGATTGTTCTCCCAGCTGATGAATTTGGATTATCGAGTAAACAAATTTTCCTAATCTTTCTGTTCAAGCGCCATCTAC,1.04
3,GATGATTGTTCTCCCAGCTGATGAATTCTCTTAGTCGAGTAAACAAATTTTCCTAATCTTTCTGTTCAAGCGCCATCTAC,0.273
4,GATGATTGTTCTCCCAGCTGATGAATTCCAATTGTCGAGTAAACAAATTTTCCTAATCTTTCTGTTCAAGCGCCATCTAC,0.958
5,GATGATTGTTCTCCCAGCTGATGAATTTGCTTCTTCGAGTAAACAAATTTTCCTAATCTTTCTGTTCAAGCGCCATCTAC,2.97
6,GATGATTGTTCTCCCAGCTGATGAATTAAGAAAATCGAGTAAACAAATTTTCCTAATCTTTCTGTTCAAGCGCCATCTAC,0.174
7,GATGATTGTTCTCCCAGCTGATGAATTTTGTTAGTCGAGTAAACAAATTTTCCTAATCTTTCTGTTCAAGCGCCATCTAC,6.69
8,GATGATTGTTCTCCCAGCTGATGAATTATAACTGTCGAGTAAACAAATTTTCCTAATCTTTCTGTTCAAGCGCCATCTAC,0.476
9,GATGATTGTTCTCCCAGCTGATGAATTGGGCCCTTCGAGTAAACAAATTTTCCTAATCTTTCTGTTCAAGCGCCATCTAC,0.711
10,GATGATTGTTCTCCCAGCTGATGAATTCTCCTCCTCGAGTAAACAAATTTTCCTAATCTTTCTGTTCAAGCGCCATCTAC,0.198
11,GATGATTGTTCTCCCAGCTGATGAATTGACAGTATCGAGTAAACAAATTTTCCTAATCTTTCTGTTCAAGCGCCATCTAC,0.709
12,GATGATTGTTCTCCCAGCTGATGAATTTAGGCAATCGAGTAAACAAATTTTCCTAATCTTTCTGTTCAAGCGCCATCTAC,2.05
13,GATGATTGTTCTCCCAGCTGATGAATTGATGTTCTCGAGTAAACAAATTTTCCTAATCTTTCTGTTCAAGCGCCATCTAC,1.61
14,GATGATTGTTCTCCCAGCTGATGAATTCAGATCATCGAGTAAACAAATTTTCCTAATCTTTCTGTTCAAGCGCCATCTAC,0.365
15,GATGATTGTTCTCCCAGCTGATGAATTGCGCAAATCGAGTAAACAAATTTTCCTAATCTTTCTGTTCAAGCGCCATCTAC,1.06
16,GATGATTGTTCTCCCAGCTGATGAATTCTGTACGTCGAGTAAACAAATTTTCCTAATCTTTCTGTTCAAGCGCCATCTAC,0.795
17,GATGATTGTTCTCCCAGCTGATGAATTAAAGCAGTCGAGTAAACAAATTTTCCTAATCTTTCTGTTCAAGCGCCATCTAC,0.508
18,GATGATTGTTCTCCCAGCTGATGAATTGTGAGATTCGAGTAAACAAATTTTCCTAATCTTTCTGTTCAAGCGCCATCTAC,0.905
19,GATGATTGTTCTCCCAGCTGATGAATTGTGCATATCGAGTAAACAAATTTTCCTAATCTTTCTGTTCAAGCGCCATCTAC,4.67
20,GATGATTGTTCTCCCAGCTGATGAATTGTCATAATCGAGTAAACAAATTTTCCTAATCTTTCTGTTCAAGCGCCATCTAC,0.614

row,Sequence,binding signal (RPM ratio (pull-down/input))
1,GATGATTGTTCTCCCAGCTGATGAATTCGGTGTGTCGAGTAAACAAATTTTCCTAATCTTTCTGTTCAAGCGCCATCTAC,2.12
2,GATGATTGTTCTCCCAGCTGATGAATTGGTAGATTCGAGTAAACAAATTTTCCTAATCTTTCTGTTCAAGCGCCATCTAC,0.462
3,GATGATTGTTCTCCCAGCTGATGAATTCGATCTCTCGAGTAAACAAATTTTCCTAATCTTTCTGTTCAAGCGCCATCTAC,0.334
4,GATGATTGTTCTCCCAGCTGATGAATTGTCTGGCTCGAGTAAACAAATTTTCCTAATCTTTCTGTTCAAGCGCCATCTAC,0.294
5,GATGATTGTTCTCCCAGCTGATGAATTGGAGATATCGAGTAAACAAATTTTCCTAATCTTTCTGTTCAAGCGCCATCTAC,0.348
6,GATGATTGTTCTCCCAGCTGATGAATTGAGGGGCTCGAGTAAACAAATTTTCCTAATCTTTCTGTTCAAGCGCCATCTAC,0.368
7,GATGATTGTTCTCCCAGCTGATGAATTCAAGGTTTCGAGTAAACAAATTTTCCTAATCTTTCTGTTCAAGCGCCATCTAC,0.4
8,GATGATTGTTCTCCCAGCTGATGAATTCAGTCCATCGAGTAAACAAATTTTCCTAATCTTTCTGTTCAAGCGCCATCTAC,0.358
9,GATGATTGTTCTCCCAGCTGATGAATTTTAGTAGTCGAGTAAACAAATTTTCCTAATCTTTCTGTTCAAGCGCCATCTAC,0.549
10,GATGATTGTTCTCCCAGCTGATGAATTCGGCATCTCGAGTAAACAAATTTTCCTAATCTTTCTGTTCAAGCGCCATCTAC,7.14
11,GATGATTGTTCTCCCAGCTGATGAATTAAAGCATTCGAGTAAACAAATTTTCCTAATCTTTCTGTTCAAGCGCCATCTAC,5.57
12,GATGATTGTTCTCCCAGCTGATGAATTTTAAGTATCGAGTAAACAAATTTTCCTAATCTTTCTGTTCAAGCGCCATCTAC,0.595
13,GATGATTGTTCTCCCAGCTGATGAATTGCTCTCTTCGAGTAAACAAATTTTCCTAATCTTTCTGTTCAAGCGCCATCTAC,0.468
14,GATGATTGTTCTCCCAGCTGATGAATTAACTAGATCGAGTAAACAAATTTTCCTAATCTTTCTGTTCAAGCGCCATCTAC,0.192
15,GATGATTGTTCTCCCAGCTGATGAATTCAAAGCGTCGAGTAAACAAATTTTCCTAATCTTTCTGTTCAAGCGCCATCTAC,0.406
16,GATGATTGTTCTCCCAGCTGATGAATTAGTCATGTCGAGTAAACAAATTTTCCTAATCTTTCTGTTCAAGCGCCATCTAC,1.51
17,GATGATTGTTCTCCCAGCTGATGAATTGATAGTTTCGAGTAAACAAATTTTCCTAATCTTTCTGTTCAAGCGCCATCTAC,0.756
18,GATGATTGTTCTCCCAGCTGATGAATTATATGATTCGAGTAAACAAATTTTCCTAATCTTTCTGTTCAAGCGCCATCTAC,2.19
19,GATGATTGTTCTCCCAGCTGATGAATTGTCATGTTCGAGTAAACAAATTTTCCTAATCTTTCTGTTCAAGCGCCATCTAC,0.964
20,GATGATTGTTCTCCCAGCTGATGAATTATGAATCTCGAGTAAACAAATTTTCCTAATCTTTCTGTTCAAGCGCCATCTAC,2.3
